Hit rate of the full screen: of about 3,200 compounds, about 110 (3.4%) showed an effect of 50% or more. The list shows a part of the results.
Test system: T1, V. cholerae SAD30
T1 construct: SAD30
Set-up: species or system S. aureus MSSA476 (TSB) or V. cholerae SAD30 (LB); 384-well bacterial growth screen at 25 uM, OD600 relative to DMSO control
Conditions: relative growth, OD600, LB; 25 µM; inhibitor

| Compound | % of control remaining |
| --- | --- |
| C=CCN(Cc1ccc(Cl)s1)C(=O)CCl [5-M05, 2-chloro-N-[(5-chlorothiophen-2-yl)methyl]-N-(prop-2-en-1-yl)acetamide] | 90.1124% |
| CC(Cl)C(=O)Nc1nc2ccccc2s1 (centres unmarked) [5-K05, N-(1,3-benzothiazol-2-yl)-2-chloropropanamide] | 101.04% |
| CC(Cl)C(=O)NCC1COc2ccccc2O1 (centres unmarked) [4-F13, 2-chloro-N-[(2,3-dihydro-1,4-benzodioxin-2-yl)methyl]propanamide] | 97.8219% |
| C=CC(=O)NC(C)c1nnnn1C1CC1 (centres unmarked) [1-M09, N-[1-(1-cyclopropyl-1H-1,2,3,4-tetrazol-5-yl)ethyl]prop-2-enamide] | 89.2377% |
| CC(Cl)C(=O)N1CCCC1c1nccc(C(F)(F)F)n1 (centres unmarked) [7-B11, 2-chloro-1-{2-[4-(trifluoromethyl)pyrimidin-2-yl]pyrrolidin-1-yl}propan-1-one] | 86.7008% |
| COc1ccc(C=C(C#N)C(=O)Nc2ccc(C)c(C)c2)cc1 [8-I05, 2-cyano-N-(3,4-dimethylphenyl)-3-(4-methoxyphenyl)prop-2-enamide] | 78.1101% |
| CC(Cl)C(=O)N1CCN(c2oc(-c3ccco3)nc2C#N)CC1 (centres unmarked) [7-D13, 5-[4-(2-chloropropanoyl)piperazin-1-yl]-2-(furan-2-yl)-1,3-oxazole-4-carbonitrile] | 76.1275% |
| C=CC(=O)NCc1ccc2oc(=O)[nH]c2c1 [3-D14, N-[(2-oxo-2,3-dihydro-1,3-benzoxazol-5-yl)methyl]prop-2-enamide] | 95.9713% |
| C=CC(=O)N1CCN(S(=O)(=O)Cc2ccon2)CC1 [1-J07, 1-{4-[(1,2-oxazol-3-yl)methanesulfonyl]piperazin-1-yl}prop-2-en-1-one] | 89.2377% |
| CC(=O)Nc1ccc(C(=O)C(C)Cl)cc1 (centres unmarked) [10-K06, N-[4-(2-chloropropanoyl)phenyl]acetamide] | 99.1233% |
| Cc1nnsc1CNC(=O)C(C)Cl (centres unmarked) [7-M07, 2-chloro-N-[(4-methyl-1,2,3-thiadiazol-5-yl)methyl]propanamide] | 79.9604% |
| C=CC(=O)N1CCCC2(CCCOC2)C1 (centres unmarked) [3-E11, 1-{2-oxa-8-azaspiro[5.5]undecan-8-yl}prop-2-en-1-one] | 99.6765% |
| CC(Cl)C(=O)Nc1cccc(Cl)c1Cl (centres unmarked) [4-L13, 2-chloro-N-(2,3-dichlorophenyl)propanamide] | 92.8186% |
| Cc1ccc(C=C(C#N)C(=O)NC(C)C)s1 [9-O11, 2-cyano-3-(5-methylthiophen-2-yl)-N-(propan-2-yl)prop-2-enamide] | 91.0265% |
| CCc1ccc(CNC(=O)CCl)s1 [6-K05, 2-chloro-N-[(5-ethylthiophen-2-yl)methyl]acetamide] | 95.4024% |
| COc1ccc(NC(=O)CCl)cc1S(=O)(=O)N1CCOCC1 [4-D15, 2-chloro-N-[4-methoxy-3-(morpholine-4-sulfonyl)phenyl]acetamide] | 104.205% |
| O=C(CCl)Nc1nc(-c2ccccc2)cs1 [4-L04, 2-chloro-N-(4-phenyl-1,3-thiazol-2-yl)acetamide] | 106.793% |
| N#CC(=Cc1c(F)cccc1F)C(=O)Nc1ccccc1F [9-J12, 2-cyano-3-(2,6-difluorophenyl)-N-(2-fluorophenyl)prop-2-enamide] | 94.2896% |
| C=CC(=O)NCCNC(=O)[C@@]12CC[C@@](C)(C(=O)O1)C2(C)C [2-J18, N-(2-{[(1S,4R)-4,7,7-trimethyl-3-oxo-2-oxabicyclo[2.2.1]heptan-1-yl]formamido}ethyl)prop-2-enamide] | 90.1959% |
| Cc1ccc(C=C(C#N)C(=O)Nc2ccccc2C(=O)O)s1 [9-K08, 2-[2-cyano-3-(5-methylthiophen-2-yl)prop-2-enamido]benzoic acid] | 78.9259% |
| N#CC(=Cc1ccc2ccccc2c1)C(=O)NC(N)=O [9-K10, {2-cyano-2-[(naphthalen-2-yl)methylidene]acetyl}urea] | 87.0836% |
| C=CC(=O)N1CC(C)(C)c2cc(Cl)ccc21 [1-L14, 1-(5-chloro-3,3-dimethyl-2,3-dihydro-1H-indol-1-yl)prop-2-en-1-one] | 100.098% |
| O=C(c1cc(=O)[nH]c2ccc([N+](=O)[O-])cc12)N1CCSSCC1 [10-B11, 4-(1,2,5-dithiazepane-5-carbonyl)-6-nitro-1,2-dihydroquinolin-2-one] | 100.682% |
| O=C(CCl)NCCCc1ccccc1 [4-N04, 2-chloro-N-(3-phenylpropyl)acetamide] | 112.487% |

| Compound | % of control remaining |
| --- | --- |
| CC(Cl)C(=O)NC1(c2nnc[nH]2)CCC1 (centres unmarked) [6-F21, 2-chloro-N-[1-(4H-1,2,4-triazol-3-yl)cyclobutyl]propanamide] | 98.7392% |
| C=CC(=O)N1CCC(C(=O)NCCc2cc[nH]n2)CC1 [3-E07, 1-(prop-2-enoyl)-N-[2-(1H-pyrazol-3-yl)ethyl]piperidine-4-carboxamide] | 104.793% |
| C=CC(=O)NC1CCOc2c(F)cccc21 (centres unmarked) [1-D05, N-(8-fluoro-3,4-dihydro-2H-1-benzopyran-4-yl)prop-2-enamide] | 90.4335% |
| C=CC(=O)Nc1ccc(O)c(C(=O)O)c1 [1-G06, 2-hydroxy-5-(prop-2-enamido)benzoic acid] | 95.2167% |
| Cc1ccc(C=C(C#N)C(=O)Nc2cccc3ncccc23)cc1 [9-J05, 2-cyano-3-(4-methylphenyl)-N-(quinolin-5-yl)prop-2-enamide] | 92.5221% |
| O=C(CCl)N1CCCCc2ccc([N+](=O)[O-])cc21 [5-I18, 2-chloro-1-(8-nitro-2,3,4,5-tetrahydro-1H-1-benzazepin-1-yl)ethan-1-one] | 94.3154% |
| C=CC(=O)N1CCC(C(=O)N2CCCC(C3OCCO3)C2)CC1 (centres unmarked) [2-L16, 1-{4-[3-(1,3-dioxolan-2-yl)piperidine-1-carbonyl]piperidin-1-yl}prop-2-en-1-one] | 95.4453% |
| C[C@@H](NC(=O)CCl)c1ccccc1 [6-O20, 2-chloro-N-[(1R)-1-phenylethyl]acetamide] | 94.0373% |
| O=C(CCl)c1c[nH]c2ccccc12 [10-B05, 2-chloro-1-(1H-indol-3-yl)ethan-1-one] | 108.475% |
| O=C(CCl)Nc1ccccc1SCc1ccccc1 [4-J05, N-[2-(benzylsulfanyl)phenyl]-2-chloroacetamide] | 96.7867% |
| CC(Cl)C(=O)Nc1ccc(N(C)C)cc1.Cl (centres unmarked) [5-N04, 2-chloro-N-[4-(dimethylamino)phenyl]propanamide hydrochloride] | 104.066% |
| Cc1ccc(C=C(C#N)C(=O)Nc2cc(Cl)ccc2Cl)s1 [9-E19, 2-cyano-N-(2,5-dichlorophenyl)-3-(5-methylthiophen-2-yl)prop-2-enamide] | 84.7723% |
| COc1cccc(NC(=O)C(C#N)=Cc2ccc([N+](=O)[O-])o2)c1 [8-A19, 2-cyano-N-(3-methoxyphenyl)-3-(5-nitrofuran-2-yl)prop-2-enamide] | 86.5398% |
| C=CC(=O)NC(Cn1ccnc1)c1ccccc1 (centres unmarked) [2-M06, N-[2-(1H-imidazol-1-yl)-1-phenylethyl]prop-2-enamide] | 89.4239% |
| C=CC(=O)N(Cc1cc2ccccn2n1)CC1(O)CCCCC1 [1-H15, N-[(1-hydroxycyclohexyl)methyl]-N-({pyrazolo[1,5-a]pyridin-2-yl}methyl)prop-2-enamide] | 81.1659% |
| O=C(Cc1cccc(F)c1)N1CCSSCC1 [10-L21, 1-(1,2,5-dithiazepan-5-yl)-2-(3-fluorophenyl)ethan-1-one] | 98.8116% |
| O=C(CCl)Nc1cc(Cl)cc(Cl)c1 [4-K09, 2-chloro-N-(3,5-dichlorophenyl)acetamide] | 84.8825% |
| O=C(CCl)Cc1ccc(Cl)c(Cl)c1 [10-E15, 1-chloro-3-(3,4-dichlorophenyl)propan-2-one] | 25.5601% |
| COc1ccc(S(N)(=O)=O)cc1NC(=O)CCl [6-O03, 2-chloro-N-(2-methoxy-5-sulfamoylphenyl)acetamide] | 98.8909% |
| C=CC(=O)N1CCCC1(COC)C(N)=O (centres unmarked) [3-K07, 2-(methoxymethyl)-1-(prop-2-enoyl)pyrrolidine-2-carboxamide] | 92.2661% |
| N#CC(=Cc1cccc(Oc2ccccc2)c1)C(=O)N1CCCC1 [9-F06, 3-(3-phenoxyphenyl)-2-(pyrrolidine-1-carbonyl)prop-2-enenitrile] | 85.724% |
| C=CC(=O)NC(c1nccs1)C(F)(F)F (centres unmarked) [2-N07, N-[2,2,2-trifluoro-1-(1,3-thiazol-2-yl)ethyl]prop-2-enamide] | 88.1887% |
| C=CC(=O)N1CCC(C(=O)NC2(c3ccc(F)cc3F)CCC2)CC1 [3-M04, N-[1-(2,4-difluorophenyl)cyclobutyl]-1-(prop-2-enoyl)piperidine-4-carboxamide] | 98.9708% |
